Drawing on publication PMC11342095, this text covers binding for four molecules.

No constants are given. Whether binding was seen depends on the method and setting. Some entries that bind do so weakly or less than the wild type. Where a sequence is shown, tags or fusion partners need not be part of it.

Common to all, as to test: two-hybrid; PJ69-4a with pGAD- and pGBD-plasmids; growth on SC-LEU-TRP-HIS plates with 1 mM 3-AT, 30 °C, 3 to 8 days
Assay [1] has as its target T1, Sei1 fused to the Gal4 activation domain or binding domain (budding yeast), Q06058.
T1 chain: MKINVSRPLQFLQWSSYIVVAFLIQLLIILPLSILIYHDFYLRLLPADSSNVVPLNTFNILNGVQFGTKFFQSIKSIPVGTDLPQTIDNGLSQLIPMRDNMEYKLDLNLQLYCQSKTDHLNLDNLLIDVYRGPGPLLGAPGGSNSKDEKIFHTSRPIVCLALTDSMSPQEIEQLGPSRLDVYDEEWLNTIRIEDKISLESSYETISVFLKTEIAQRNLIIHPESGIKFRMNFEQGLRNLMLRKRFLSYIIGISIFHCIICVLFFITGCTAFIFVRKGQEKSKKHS
To be noted: remark: other sources report otherwise.

Assay [2] deals with T2, Ldb16 fused to the Gal4 activation domain or binding domain (budding yeast) (UniProt P25587).
T2 sequence: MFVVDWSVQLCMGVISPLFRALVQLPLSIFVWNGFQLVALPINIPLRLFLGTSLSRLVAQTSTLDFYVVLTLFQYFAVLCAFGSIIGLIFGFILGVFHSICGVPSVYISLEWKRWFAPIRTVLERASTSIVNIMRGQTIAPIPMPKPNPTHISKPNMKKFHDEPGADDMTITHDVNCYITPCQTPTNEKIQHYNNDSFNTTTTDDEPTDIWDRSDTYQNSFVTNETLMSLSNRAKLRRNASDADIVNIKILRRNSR

In assay [3] the target is T3, Ldo16 fused to the Gal4 activation domain or binding domain (budding yeast) (UniProt P40219).
T3 sequence: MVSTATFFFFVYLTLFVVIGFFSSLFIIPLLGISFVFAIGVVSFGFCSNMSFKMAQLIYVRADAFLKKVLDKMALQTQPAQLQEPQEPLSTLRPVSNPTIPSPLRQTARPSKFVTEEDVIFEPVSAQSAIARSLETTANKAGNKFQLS

The target of assay [4] is T4, Pln1 fused to the Gal4 activation domain or binding domain (budding yeast) (UniProt P36139).
T4 sequence: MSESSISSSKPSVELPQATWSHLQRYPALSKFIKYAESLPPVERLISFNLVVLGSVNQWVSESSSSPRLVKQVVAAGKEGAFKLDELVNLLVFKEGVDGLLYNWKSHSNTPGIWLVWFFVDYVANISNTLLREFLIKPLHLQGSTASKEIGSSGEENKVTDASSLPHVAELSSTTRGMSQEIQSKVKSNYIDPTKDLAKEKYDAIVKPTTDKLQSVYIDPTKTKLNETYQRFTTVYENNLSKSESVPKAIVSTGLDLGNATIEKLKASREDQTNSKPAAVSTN

Assay [5] deals with T5, Sei1 fused to the Gal4 activation domain or binding domain (budding yeast) (UniProt Q06058).
T5 sequence: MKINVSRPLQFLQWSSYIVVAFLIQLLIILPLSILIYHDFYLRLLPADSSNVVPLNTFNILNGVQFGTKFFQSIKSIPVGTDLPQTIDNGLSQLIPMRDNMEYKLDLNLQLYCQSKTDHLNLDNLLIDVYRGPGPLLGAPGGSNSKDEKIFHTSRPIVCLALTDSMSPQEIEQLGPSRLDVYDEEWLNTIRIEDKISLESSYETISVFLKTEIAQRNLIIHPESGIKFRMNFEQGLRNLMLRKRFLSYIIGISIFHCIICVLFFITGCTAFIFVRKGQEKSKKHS

Assay [6] concerns the target T6, Tgl4 fused to the Gal4 activation domain or binding domain (budding yeast) (UniProt P36165).
T6 sequence: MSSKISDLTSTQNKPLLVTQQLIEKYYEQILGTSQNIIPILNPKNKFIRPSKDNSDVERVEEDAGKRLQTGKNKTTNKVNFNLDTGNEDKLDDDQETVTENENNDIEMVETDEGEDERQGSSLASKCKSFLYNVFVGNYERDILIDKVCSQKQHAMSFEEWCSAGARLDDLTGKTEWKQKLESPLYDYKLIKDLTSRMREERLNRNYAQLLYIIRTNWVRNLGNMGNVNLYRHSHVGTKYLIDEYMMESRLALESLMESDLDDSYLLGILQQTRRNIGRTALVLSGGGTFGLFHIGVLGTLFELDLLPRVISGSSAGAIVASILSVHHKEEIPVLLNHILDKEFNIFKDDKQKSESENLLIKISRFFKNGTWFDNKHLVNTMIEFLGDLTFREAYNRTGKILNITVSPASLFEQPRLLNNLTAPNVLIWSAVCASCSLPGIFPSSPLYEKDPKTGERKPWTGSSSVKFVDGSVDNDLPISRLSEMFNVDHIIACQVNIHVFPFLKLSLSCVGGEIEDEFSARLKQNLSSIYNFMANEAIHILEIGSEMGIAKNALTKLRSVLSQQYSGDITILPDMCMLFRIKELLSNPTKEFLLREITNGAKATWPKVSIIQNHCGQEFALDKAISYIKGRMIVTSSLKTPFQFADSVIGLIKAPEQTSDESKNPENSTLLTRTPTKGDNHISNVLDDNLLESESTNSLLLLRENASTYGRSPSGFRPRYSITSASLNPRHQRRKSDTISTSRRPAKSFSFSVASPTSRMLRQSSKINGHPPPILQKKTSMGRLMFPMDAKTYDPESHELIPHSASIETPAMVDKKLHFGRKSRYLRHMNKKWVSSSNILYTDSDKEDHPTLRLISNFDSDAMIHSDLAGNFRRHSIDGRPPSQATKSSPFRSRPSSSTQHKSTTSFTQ

B1: Ldo16 fused to the Gal4 activation domain or binding domain, P40219 1-148 (protein)
chain: MVSTATFFFFVYLTLFVVIGFFSSLFIIPLLGISFVFAIGVVSFGFCSNMSFKMAQLIYVRADAFLKKVLDKMALQTQPAQLQEPQEPLSTLRPVSNPTIPSPLRQTARPSKFVTEEDVIFEPVSAQSAIARSLETTANKAGNKFQLS
Regarding B1, the binding entry in assay [1] is “no binding”.

B2: Ldo45 fused to the Gal4 activation domain or binding domain (protein, UniProt P40218 1-412)
chain: MAARNRRKNNKKKSLLVTSAAQEKNATYVLVAEELHKKTIDLNMGTETPLTENHENPIPAKEFKHQQKLEPIDEHDDGEDELSIKFKSMTKSSGPITEAEVQKLLLSYAFTSAAIQEDENEKESRHYPIKPPSPSASSLSAYFQSFVEKCKQVFYNFSLQTVEKLNALQNSLYEVFWIIFIYLNYWFPNVGDYVSNTFGQQDSIIIRISLSKSHFRALREKSSQKVQQAVKNIYFCFQEKPYLTAFKVSFAIGLVIPCSLLFLIMVSTATFFFFVYLTLFVVIGFFSSLFIIPLLGISFVFAIGVVSFGFCSNMSFKMAQLIYVRADAFLKKVLDKMALQTQPAQLQEPQEPLSTLRPVSNPTIPSPLRQTARPSKFVTEEDVIFEPVSAQSAIARSLETTANKAGNKFQLS
B2: the binding result in assay [2] is “binds”; in assay [3], “binds”; in assay [4], “binds”; in assay [5], “binds weakly”; in assay [6], “binds”.

B3: Tgl4 fused to the Gal4 activation domain or binding domain (protein, UniProt P36165 1-910)
chain: MSSKISDLTSTQNKPLLVTQQLIEKYYEQILGTSQNIIPILNPKNKFIRPSKDNSDVERVEEDAGKRLQTGKNKTTNKVNFNLDTGNEDKLDDDQETVTENENNDIEMVETDEGEDERQGSSLASKCKSFLYNVFVGNYERDILIDKVCSQKQHAMSFEEWCSAGARLDDLTGKTEWKQKLESPLYDYKLIKDLTSRMREERLNRNYAQLLYIIRTNWVRNLGNMGNVNLYRHSHVGTKYLIDEYMMESRLALESLMESDLDDSYLLGILQQTRRNIGRTALVLSGGGTFGLFHIGVLGTLFELDLLPRVISGSSAGAIVASILSVHHKEEIPVLLNHILDKEFNIFKDDKQKSESENLLIKISRFFKNGTWFDNKHLVNTMIEFLGDLTFREAYNRTGKILNITVSPASLFEQPRLLNNLTAPNVLIWSAVCASCSLPGIFPSSPLYEKDPKTGERKPWTGSSSVKFVDGSVDNDLPISRLSEMFNVDHIIACQVNIHVFPFLKLSLSCVGGEIEDEFSARLKQNLSSIYNFMANEAIHILEIGSEMGIAKNALTKLRSVLSQQYSGDITILPDMCMLFRIKELLSNPTKEFLLREITNGAKATWPKVSIIQNHCGQEFALDKAISYIKGRMIVTSSLKTPFQFADSVIGLIKAPEQTSDESKNPENSTLLTRTPTKGDNHISNVLDDNLLESESTNSLLLLRENASTYGRSPSGFRPRYSITSASLNPRHQRRKSDTISTSRRPAKSFSFSVASPTSRMLRQSSKINGHPPPILQKKTSMGRLMFPMDAKTYDPESHELIPHSASIETPAMVDKKLHFGRKSRYLRHMNKKWVSSSNILYTDSDKEDHPTLRLISNFDSDAMIHSDLAGNFRRHSIDGRPPSQATKSSPFRSRPSSSTQHKSTTSFTQ
As for B3, the binding result in assay [5] is given as “no binding”.

B4: Pln1 fused to the Gal4 activation domain or binding domain (protein, UniProt P36139 1-283)
chain: MSESSISSSKPSVELPQATWSHLQRYPALSKFIKYAESLPPVERLISFNLVVLGSVNQWVSESSSSPRLVKQVVAAGKEGAFKLDELVNLLVFKEGVDGLLYNWKSHSNTPGIWLVWFFVDYVANISNTLLREFLIKPLHLQGSTASKEIGSSGEENKVTDASSLPHVAELSSTTRGMSQEIQSKVKSNYIDPTKDLAKEKYDAIVKPTTDKLQSVYIDPTKTKLNETYQRFTTVYENNLSKSESVPKAIVSTGLDLGNATIEKLKASREDQTNSKPAAVSTN
Consider B4, for which, in assay [2], the binding entry was “no binding”.
